# In the supplement of paper PMC8728848:
# Some of the results follow.
# B1: F17eG (Escherichia coli), Q9RH92 (protein)
# chain: MTNFYKVFLAVFILVCCNISHAAVSFIGSTENDVGPSQSSYSRTHAMDNLPFVYNTGYNIGYQNANVWRISGGFCVGLDGKVDLPVVGSLDGQSIYGLTEEVGLLIWMGDTNYSRGTAMSGNSWENVFSGWCVGNYVSTQGLSVHVRPVILKRNSSAQYSVQKTSIGSIRMRPYNGSSAGSVQTTVNFSLNPFTLNDTVTSCRLLTPSAVNVSLAAISAGQLPSSGDEVVAGTTSLKLQCDAGVTVWATLTDATTPSNRSDILTLTGASTATGVGLRIYKNTDSTPLKFGPDSPVKGNENQWQLSTGTETSPSVRLYVKYVNTGEGINPGTVNGISTFTFSYQ
# Key:
# Test in all cases: glycan array binding signal (z-score within array); higher = stronger binding
# Conditions in all cases: glycan notation: IUPAC condensed, linker removed
# [1] = molecular target: Fuc(a1-3)[Gal(b1-4)]GlcNAc
# Summary of the method: (§1)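 Columns mapping to the same glycan were averaged after glycan names were converted to IUPAC-condensed notation. The data come from 3228 arrays in the Consortium for Functional Glycomics database, limited to those with an available protein sequence. Binding is reported as a within-array Z-score averaged across arrays of one protein sequence and across linkers.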
# [2] = molecular target: Fuc(a1-3)[Gal(b1-4)]GlcNAc(b1-4)Gal(b1-4)[Fuc(a1-3)]GlcNAc
# Summary of the method: as §1
# [3] = molecular target: Fuc(a1-3)[Gal(b1-4)]GlcNAc(b1-4)Gal(b1-4)[Fuc(a1-3)]GlcNAc(b1-4)Gal(b1-4)[Fuc(a1-3)]GlcNAc
# Summary of the method: as §1
# [4] = molecular target: Fuc(a1-3)[Gal3S(b1-4)]GlcNAc
# Summary of the method: as §1
# [5] = molecular target: Fuc(a1-3)[GalNAc(b1-4)]GlcNAc
# Summary of the method: as §1
# Fuc(a1-4)GlcNAc = molecular target: Fuc(a1-4)GlcNAc
# Summary of the method: as §1
# Fuc(b1-3)GlcNAc = molecular target: Fuc(b1-3)GlcNAc
# Summary of the method: as §1
# Gal(a1-2)Gal = molecular target: Gal(a1-2)Gal
# Summary of the method: as §1
# Gal(a1-3)Gal = molecular target: Gal(a1-3)Gal
# Summary of the method: as §1
# Gal(a1-3)Gal(b1-3)GlcNAc = molecular target: Gal(a1-3)Gal(b1-3)GlcNAc
# Summary of the method: as §1
# Gal(a1-3)Gal(b1-4)Glc = molecular target: Gal(a1-3)Gal(b1-4)Glc
# Summary of the method: as §1
# Gal(a1-3)Gal(b1-4)GlcNAc = molecular target: Gal(a1-3)Gal(b1-4)GlcNAc
# Summary of the method: as §1
# [6] = molecular target: Gal(a1-3)Gal(b1-4)[Fuc(a1-3)]GlcNAc
# Summary of the method: as §1
# Gal(a1-3)GalNAc = molecular target: Gal(a1-3)GalNAc
# Summary of the method: as §1
# [7] = molecular target: Gal(a1-3)[Gal(a1-4)]Gal(b1-4)GlcNAc
# Summary of the method: as §1
# Gal(a1-4)Gal(b1-4)Glc = molecular target: Gal(a1-4)Gal(b1-4)Glc
# Summary of the method: as §1
# Gal(a1-4)Gal(b1-4)GlcNAc = molecular target: Gal(a1-4)Gal(b1-4)GlcNAc
# Summary of the method: as §1
# Gal(a1-4)GlcNAc = molecular target: Gal(a1-4)GlcNAc
# Summary of the method: as §1
# Gal(a1-6)Glc = molecular target: Gal(a1-6)Glc
# Summary of the method: as §1
# Gal(b1-2)Gal = molecular target: Gal(b1-2)Gal
# Summary of the method: as §1
# Gal(b1-3)Gal = molecular target: Gal(b1-3)Gal
# Summary of the method: as §1
# Gal(b1-3)GalNAc = molecular target: Gal(b1-3)GalNAc
# Summary of the method: as §1
# [8] = molecular target: Gal(b1-3)GalNAc(b1-3)Gal(a1-4)Gal(b1-4)Glc
# Summary of the method: as §1
# [9] = molecular target: Gal(b1-3)GalNAc(b1-4)Gal(b1-4)Glc
# Summary of the method: as §1
# [10] = molecular target: Gal(b1-3)GalNAc(b1-4)[Neu5Ac(a2-3)]Gal(b1-4)Glc
# Summary of the method: as §1
# Gal(b1-3)GlcNAc = molecular target: Gal(b1-3)GlcNAc
# Summary of the method: as §1
# [11] = molecular target: Gal(b1-3)GlcNAc(b1-3)Gal(b1-4)Glc
# Summary of the method: as §1
# [12] = molecular target: Gal(b1-3)GlcNAc(b1-3)Gal(b1-4)GlcNAc
# Summary of the method: as §1
# [13] = molecular target: Gal(b1-3)[Fuc(a1-4)]GlcNAc
# Summary of the method: as §1
# [14] = molecular target: Gal(b1-3)[Fuc(a1-4)]GlcNAc(b1-3)Gal(b1-4)GlcNAc
# Summary of the method: as §1
# [15] = molecular target: Gal(b1-3)[Fuc(a1-4)]GlcNAc(b1-3)Gal(b1-4)[Fuc(a1-3)]GlcNAc
# Summary of the method: as §1
# [16] = molecular target: Gal(b1-3)[GlcNAc(b1-6)]GalNAc
# Summary of the method: as §1
# [17] = molecular target: Gal(b1-3)[Neu5Ac(a2-6)]GalNAc
# Summary of the method: as §1
# [18] = molecular target: Gal(b1-3)[Neu5Ac(a2-6)]GlcNAc(b1-6)Gal(b1-4)Glc
# Summary of the method: as §1
# [19] = molecular target: Gal(b1-3)[Neu5Ac(b2-6)]GalNAc
# Summary of the method: as §1
# [20] = molecular target: Gal(b1-4)GalNAc(a1-3)[Fuc(a1-2)]Gal(b1-4)GlcNAc
# Summary of the method: as §1
# [21] = molecular target: Gal(b1-4)GalNAc(b1-3)[Fuc(a1-2)]Gal(b1-4)GlcNAc
# Summary of the method: as §1
# Gal(b1-4)Glc = molecular target: Gal(b1-4)Glc
# Summary of the method: as §1
# Gal(b1-4)Glc6S = molecular target: Gal(b1-4)Glc6S
# Summary of the method: as §1
# Gal(b1-4)GlcNAc = molecular target: Gal(b1-4)GlcNAc
# Summary of the method: as §1
# [22] = molecular target: Gal(b1-4)GlcNAc(b1-2)Man(a1-3)[Gal(b1-4)GlcNAc(b1-2)Man(a1-6)]Man(b1-4)GlcNAc(b1-4)GlcNAc
# Summary of the method: as §1
# [23] = molecular target: Gal(b1-4)GlcNAc(b1-3)Gal(b1-4)Glc
# Summary of the method: as §1
# [24] = molecular target: Gal(b1-4)GlcNAc(b1-3)Gal(b1-4)GlcNAc
# Summary of the method: as §1
# [25] = molecular target: Gal(b1-4)GlcNAc(b1-3)Gal(b1-4)GlcNAc(b1-3)Gal(b1-4)GlcNAc
# Summary of the method: as §1
# [26] = molecular target: Gal(b1-4)GlcNAc(b1-3)Gal(b1-4)[Fuc(a1-3)]GlcNAc(b1-3)Gal(b1-4)[Fuc(a1-3)]GlcNAc
# Summary of the method: as §1
binder,measurement,setting,value
B1,glycan array binding signal (z-score),[1],-0.305
same,glycan array binding signal (z-score),[2],-0.095
same,glycan array binding signal (z-score),[3],-0.314
same,glycan array binding signal (z-score),[4],-0.147
same,glycan array binding signal (z-score),[5],-0.309
same,glycan array binding signal (z-score),Fuc(a1-4)GlcNAc,-0.312
same,glycan array binding signal (z-score),Fuc(b1-3)GlcNAc,-0.315
same,glycan array binding signal (z-score),Gal(a1-2)Gal,-0.313
same,glycan array binding signal (z-score),Gal(a1-3)Gal,-0.296
same,glycan array binding signal (z-score),Gal(a1-3)Gal(b1-3)GlcNAc,-0.316
same,glycan array binding signal (z-score),Gal(a1-3)Gal(b1-4)Glc,-0.307
same,glycan array binding signal (z-score),Gal(a1-3)Gal(b1-4)GlcNAc,-0.312
same,glycan array binding signal (z-score),[6],-0.313
same,glycan array binding signal (z-score),Gal(a1-3)GalNAc,-0.302
same,glycan array binding signal (z-score),[7],-0.309
same,glycan array binding signal (z-score),Gal(a1-4)Gal(b1-4)Glc,-0.293
same,glycan array binding signal (z-score),Gal(a1-4)Gal(b1-4)GlcNAc,-0.306
same,glycan array binding signal (z-score),Gal(a1-4)GlcNAc,-0.307
same,glycan array binding signal (z-score),Gal(a1-6)Glc,-0.29
same,glycan array binding signal (z-score),Gal(b1-2)Gal,-0.309
same,glycan array binding signal (z-score),Gal(b1-3)Gal,-0.296
same,glycan array binding signal (z-score),Gal(b1-3)GalNAc,-0.295
same,glycan array binding signal (z-score),[8],-0.304
same,glycan array binding signal (z-score),[9],-0.31
same,glycan array binding signal (z-score),[10],-0.31
same,glycan array binding signal (z-score),Gal(b1-3)GlcNAc,-0.287
same,glycan array binding signal (z-score),[11],-0.293
same,glycan array binding signal (z-score),[12],-0.305
same,glycan array binding signal (z-score),[13],-0.309
same,glycan array binding signal (z-score),[14],-0.316
same,glycan array binding signal (z-score),[15],-0.221
same,glycan array binding signal (z-score),[16],4.13
same,glycan array binding signal (z-score),[17],-0.312
same,glycan array binding signal (z-score),[18],-0.318
same,glycan array binding signal (z-score),[19],-0.3
same,glycan array binding signal (z-score),[20],-0.137
same,glycan array binding signal (z-score),[21],-0.297
same,glycan array binding signal (z-score),Gal(b1-4)Glc,-0.307
same,glycan array binding signal (z-score),Gal(b1-4)Glc6S,-0.297
same,glycan array binding signal (z-score),Gal(b1-4)GlcNAc,0.593
same,glycan array binding signal (z-score),[22],-0.298
same,glycan array binding signal (z-score),[23],-0.133
same,glycan array binding signal (z-score),[24],-0.293
same,glycan array binding signal (z-score),[25],-0.292
same,glycan array binding signal (z-score),[26],-0.263
